Measured values published in the supplement of paper PMC12217912.
Some of the results follow. Sequences were assembled here from the parent chain. Values near 0.05 are background.

B1: TEV protease; numbered along this chain (parent)
chain: MGESLFKGPRDYNPISSSICHLTNESDGHTTSLYGIGFGPFIITNKHLFRRNNGTLVVQSLHGVFKVKDTTTLQQHLVDGRDMIIIRMPKDFPPFPQKLKFREPQREERICLVTTNFQTKSMSSMVSDTSCTFPSGDGIFWKHWIQTKDGQCGSPLVSTRDGFIVGIHSASNFTNTNNYFTSVPKNFMELLTNQEAQQWVSGWRLNADSVLWGGHKVFMVKPEEPFQPVKEATQL

Variants of: B1
Test: raw area under fraction-flipped curve 0-4 h after induction (AUC4h, not background-subtracted), DNA-recorder readout of cleavage of the substrate (dimensionless); higher = more cleavage of the substrate by the protease variant
Conditions: temperature: 34 °C; time window: 0-4 h after rhamnose induction
Procedure: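 In vivo DNA recorder in E. coli TOP10(DE3) ΔrhaA at 34 °C. Each TEVp single-site mutant (parent TEVp 0) is paired with a single-site variant of the 7-mer TEVs (canonical ENLYFQ|S). The substrate sits between flexible linkers in a Bxb1-sfGFP-TEVs-SsrA fusion, so cleavage stabilises Bxb1 and speeds flipping of a recombination array, read by NGS. The value is the raw area under the fraction-flipped curve over 0-4 h after rhamnose induction (AUC4h), with ≥20 reads per time point. It is not background-subtracted; inactive controls average about 0.047.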
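Note: Bxb1 expression induced with 0.2% (w/v) L-rhamnose at OD600 near 0.5, cultures sampled hourly, flipped fraction per protease–substrate barcode pair counted by paired-end Illumina sequencing.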

Row | Variant | area with substrate ENLYFQD | area with substrate ENLYFQG | area with substrate ENLYFQK | area with substrate ENLYFQL | area with substrate ENLYFQM | area with substrate ENLYFQQ | area with substrate ENLYFQS | area with substrate ENLYFQT | area with substrate ENLYFQW | area with substrate ENLYFQI
1 | G153V | 0.0381 | 0.0454 | 0.0575 | 0.0342 | 0.0561 | 0.0707 | 0.0486 | 0.0618 | 0.045 | –
2 | G153R | 0.0515 | – | – | – | – | – | 0.0514 | – | – | 0.0563
3 | P96T | – | – | – | – | – | – | 0.102 | 0.103 | 0.0662 | –
4 | P96C | – | 0.112 | – | – | 0.128 | – | 0.118 | – | – | 0.0538
5 | F133G | – | 0.0712 | 0.0339 | 0.0493 | – | – | 0.0867 | 0.0749 | 0.0612 | 0.0651
6 | V64H | – | 0.0738 | – | – | – | – | 0.102 | – | – | 0.0616
7 | V64A | 0.0801 | 0.0764 | 0.071 | 0.0426 | 0.0723 | – | 0.0945 | 0.0667 | 0.0658 | 0.0556
8 | L5R | 0.136 | – | – | 0.0593 | – | – | 0.111 | – | 0.07 | –
9 | K120C | – | 0.0931 | 0.0652 | 0.0613 | 0.0786 | – | 0.0951 | 0.0617 | 0.0715 | 0.0553
10 | K120T | – | – | – | – | – | – | 0.0954 | 0.0671 | – | –
11 | W141H | – | 0.0624 | – | 0.0507 | 0.0884 | – | 0.0763 | – | – | 0.0378
12 | Q75N | 0.0497 | – | 0.0622 | 0.0438 | 0.0406 | – | 0.0823 | 0.0519 | – | 0.0581
13 | G35K | 0.0495 | – | – | – | 0.0464 | – | 0.0477 | – | 0.039 | –
14 | S209P | – | 0.0836 | – | 0.0428 | – | – | 0.0894 | – | – | –
15 | S209I | – | – | – | 0.059 | – | – | 0.102 | – | – | 0.047
16 | F218R | 0.0626 | – | 0.0538 | 0.058 | – | – | 0.0821 | – | – | –
17 | P228F | 0.073 | – | 0.052 | – | – | – | 0.0933 | 0.0736 | – | –
18 | T119F | – | 0.028 | 0.0582 | 0.0767 | 0.0965 | – | 0.106 | – | – | –
19 | V200G | – | 0.0492 | – | – | 0.0547 | – | 0.0609 | 0.0674 | 0.0533 | 0.0511

Row | Variant | area with substrate ENLYFQD | area with substrate ENLYFQG | area with substrate ENLYFQK | area with substrate ENLYFQL | area with substrate ENLYFQM | area with substrate ENLYFQQ | area with substrate ENLYFQS | area with substrate ENLYFQT | area with substrate ENLYFQW | area with substrate ENLYFQI
20 | V200K | 0.0582 | – | – | – | – | – | 0.0801 | – | – | –
21 | V200Q | – | 0.0925 | – | 0.0674 | – | – | 0.0925 | – | – | –
22 | I164F | – | – | – | 0.0526 | – | – | 0.0594 | 0.0573 | – | –
23 | G202K | – | – | – | – | 0.117 | – | 0.0675 | – | 0.0555 | –
24 | A207M | – | – | – | – | – | – | 0.102 | – | 0.0613 | 0.0094
25 | I110E | – | – | – | – | – | 0.0477 | 0.0503 | – | 0.0555 | –
26 | G214S | 0.0406 | – | – | 0.0577 | 0.0745 | – | 0.0939 | – | 0.0445 | –
27 | K221E | 0.0202 | 0.0894 | 0.0411 | 0.0478 | 0.0441 | – | 0.107 | 0.0627 | 0.0511 | 0.0484
28 | C152H | – | 0.0528 | – | 0.0553 | – | 0.0346 | 0.0604 | – | 0.0572 | –
29 | L56K | – | 0.059 | 0.0469 | 0.0388 | 0.0407 | 0.0375 | 0.0478 | 0.0485 | 0.0475 | 0.0352
30 | E195Y | – | 0.0926 | – | – | – | – | 0.101 | – | 0.0765 | 0.0505
31 | T192L | – | 0.133 | 0.0559 | – | 0.0651 | 0.104 | 0.101 | 0.0802 | 0.0704 | –
32 | T192K | 0.0689 | – | 0.0465 | 0.0731 | – | 0.0844 | 0.0906 | 0.0571 | 0.0609 | 0.0567
33 | V210Y | 0.0404 | 0.0904 | 0.0557 | 0.0494 | 0.0743 | – | 0.0986 | 0.0772 | 0.066 | 0.0401
34 | E3Y | – | – | – | – | 0.109 | – | 0.132 | – | – | –
35 | H215A | 0.0701 | – | 0.0565 | 0.0566 | 0.0551 | – | 0.067 | – | 0.0606 | 0.0576
36 | Q74S | 0.0602 | – | 0.067 | 0.0672 | – | – | 0.0886 | 0.0727 | – | 0.0707
37 | L205V | – | 0.0906 | – | 0.0622 | 0.0786 | – | 0.0861 | 0.0598 | – | –
38 | D128G | – | – | – | – | – | – | 0.146 | – | – | –

Same assay, conditions: temperature: 34 °C; time window: 0-4 h after rhamnose induction

Row | Variant | area with substrate ENLYFQH | area with substrate ENLYFQP | area with substrate ENLYFQR | area with substrate ENLYFQF | area with substrate ENLYFQN | area with substrate ENLYFQV | area with substrate ENLYFQY | area with substrate ENLYFQE | area with substrate ENLYFQC
39 | P96T | 0.049 | 0.0626 | 0.0719 | – | – | – | – | – | –
40 | P96C | – | 0.0486 | 0.062 | 0.125 | 0.0818 | 0.0594 | 0.0661 | – | –
41 | F133G | 0.088 | 0.0625 | 0.062 | 0.0744 | – | – | 0.0682 | – | –
42 | V64H | 0.0971 | – | – | – | – | 0.0399 | – | – | –
43 | V64A | – | 0.0234 | – | 0.0804 | – | – | 0.0995 | – | –
44 | K120C | – | – | 0.0567 | – | 0.0698 | 0.077 | – | – | –
45 | K120T | 0.111 | – | – | 0.0861 | – | – | – | – | –
46 | W141H | 0.079 | – | 0.0705 | – | 0.0659 | – | 0.0613 | 0.0616 | –
47 | Q75N | – | – | 0.0574 | – | 0.0568 | – | – | – | –
48 | G35K | – | – | – | – | – | – | 0.0573 | – | –
49 | S209P | 0.0653 | – | 0.065 | – | 0.0723 | – | 0.066 | – | 0.091
50 | S209I | – | 0.0583 | – | – | – | – | – | – | –
51 | F218R | 0.06 | – | – | – | 0.0508 | 0.0522 | – | – | –
52 | P228F | 0.077 | 0.0688 | – | – | 0.067 | 0.0743 | – | – | 0.0395
53 | T119F | – | – | 0.0659 | 0.0716 | – | – | – | – | –
54 | V200G | – | – | 0.0588 | 0.0582 | 0.0626 | – | – | – | –
55 | V200Q | – | – | 0.0785 | – | – | – | – | – | –

Row | Variant | area with substrate ENLYFQH | area with substrate ENLYFQP | area with substrate ENLYFQR | area with substrate ENLYFQF | area with substrate ENLYFQN | area with substrate ENLYFQV | area with substrate ENLYFQY | area with substrate ENLYFQE | area with substrate ENLYFQC
56 | I164F | 0.05 | – | 0.0397 | – | – | – | – | – | –
57 | G202K | – | – | – | – | 0.0613 | – | – | 0.0578 | –
58 | I110E | – | – | – | – | – | – | 0.0563 | – | –
59 | G214S | 0.0761 | 0.0506 | 0.0672 | – | 0.0713 | 0.064 | – | – | –
60 | K221E | 0.0652 | 0.0652 | 0.0509 | – | 0.0803 | 0.0536 | 0.0492 | – | 0.102
61 | C152H | – | – | 0.0608 | – | – | 0.0662 | 0.0761 | – | –
62 | L56K | 0.085 | 0.0533 | 0.0504 | – | 0.0523 | – | 0.0486 | – | –
63 | E195Y | – | – | 0.0577 | 0.0687 | – | – | – | – | –
64 | T192L | 0.0873 | 0.0568 | 0.0729 | – | – | 0.0357 | – | – | –
65 | T192K | 0.069 | 0.0722 | 0.0719 | – | 0.0782 | 0.0564 | – | – | –
66 | V210Y | – | 0.0513 | 0.0583 | 0.058 | 0.0603 | 0.0583 | – | – | 0.0908
67 | E3Y | 0.0771 | 0.0439 | 0.0455 | – | – | – | 0.0979 | – | –
68 | H215A | – | – | – | 0.053 | 0.057 | 0.0589 | – | – | –
69 | Q74S | 0.0912 | 0.0673 | 0.064 | 0.0959 | 0.0814 | 0.05 | 0.112 | 0.0586 | –
70 | L205V | – | 0.0565 | – | – | 0.0614 | 0.0526 | 0.102 | – | –
71 | D128G | – | – | – | – | 0.108 | – | – | – | –
